Laboratory results from PubChem BioAssay AID1671194 (National Center for Advancing Translational Sciences (NCATS), 2021).
About 240 (0.17%) of roughly 140,000 compounds were called active. The shares of active, inactive and inconclusive entries below differ from those in the screen. Calls follow the shape of the dose curve; as a rule, active = well fitted inhibition curve with a large enough effect; inconclusive = small, poorly fitted or top-dose-only effect; inactive = no such curve, though single readings can be large or run the other way. Potencies of inconclusive entries are doubtful fits and often do not repeat.

Experiment: Primary qHTS assay for inhibitors of alpha-synuclein gene (SNCA) expression; also: nearly all actives have a fitted effect of over 45% in size
Details: HEK-293 SNCA-luciferase knock-in, luminescence, 24 h; series mostly up to 57.2 µM
Potency is read from the fitted curve at half-maximal effect; tags tell the direction and shape of the fitted curve.

Q: For CCCn1cc(C(=O)NCC2COc3cc(OC)ccc3C2)c(C)n1 (stereo not drawn), which Potency is on record?
A: inconclusive: 3.16 µM [inhibitor, single point]

Q: For COc1ccc(-c2cc(C[C@H]3CNCC[C@H]3CC(=O)Nc3nccs3)no2)cc1, which Potency is on record?
A: inactive

Q: For O=C(C1CCCC1)N1CCc2nc(C3CC3)nc(-c3ccc(O)cc3)c2CC1, which Potency is on record?
A: inconclusive: 10 µM [inhibitor, partial curve, poor fit]

Q: For Cc1ccc(CNC(=O)CN2C(=O)C3(SCC(=O)N3c3cc(C)cc(C)c3)c3ccccc32)cc1 (stereo not drawn), which Potency is on record?
A: inconclusive: 11.2 µM [inhibitor, partial curve, poor fit]

Q: Which Potency does the source give for CCN(c1ccccc1)S(=O)(=O)c1ccc(F)c(C(=O)Nc2ccc(C)cc2)c1 here?
A: inconclusive: 39.8 µM [inhibitor, single point]

Q: With CNC(=O)[C@@H]1C[C@H](Oc2cccnc2)CN1C(=O)c1cc(C)n(C)n1 as the compound, how does the Potency read?
A: inconclusive: 3.55 µM [inhibitor, full curve, poor fit]

Q: Which Potency does the source give for Cc1ccc(NC(=O)N2CCC(CCNC(=O)C3CCC3)CC2)cc1F here?
A: inactive

Q: For c1ccc(-c2noc(-c3cncnc3NCC3CCCCC3)n2)cc1, which Potency is on record?
A: inactive

Q: For O=C(C1CCCC1)N1CC2(CCN(C3CCCCC3)C2)Cc2ccccc21 (stereo not drawn), which Potency is on record?
A: inactive

Q: Which Potency does the source give for N#Cc1ccc2nc([C@H]3CCN(Cc4ccc(F)c(F)c4)C3)[nH]c2c1 here?
A: inconclusive: 63.1 µM [inhibitor, partial curve, poor fit]

Q: For COc1ccc(Cl)cc1NC(=O)C1CN(S(C)(=O)=O)CC12CCCCC2 (stereo not drawn), which Potency is on record?
A: inconclusive: 14.1 µM [inhibitor, partial curve, poor fit]

Q: For CN(C(=O)CSc1nc2ccccc2n1CC(=O)N(C)c1ccc(F)cc1)c1ccccc1, which Potency is on record?
A: inconclusive: 28.2 µM [inhibitor, single point]

Q: With CS(=O)(=O)N1CCCN(C(=O)c2ccc(C#N)cc2)CCNC(=O)CC1c1ccccc1 (stereo not drawn) as the compound, how does the Potency read?
A: inconclusive: 5.01 µM [inhibitor, single point]

Q: For O=C(c1ccc(F)cc1)N1CCC(C(=O)N2CCC(N3CCOCC3=O)CC2)CC1, which Potency is on record?
A: inactive

Q: For Cc1onc(-c2cnn(C)c2NCc2ccc(C#N)cc2)c1C(=O)N(C)c1cccnc1, which Potency is on record?
A: inactive

Q: For O=C1CN(C(=O)c2ccc(Cl)cc2Cl)C(c2ccc(F)cc2)c2cc(F)ccc2N1 (stereo not drawn), which Potency is on record?
A: inconclusive: 31.6 µM [inhibitor, single point]

Q: For CC(C)(C)OC(=O)N1CCC(c2c(C(=O)Nc3cccc(C(F)(F)F)c3)cnn2-c2ccc(F)cc2F)CC1, which Potency is on record?
A: inconclusive: 39.8 µM [inhibitor, single point]

Q: For O=C(Nc1ccc(Cl)cc1)N1CCCC(c2nn(-c3ccccn3)c(=O)[nH]2)C1 (stereo not drawn), which Potency is on record?
A: inconclusive: 39.8 µM [inhibitor, single point]

Q: For CCc1cc(NC(CCO)c2ccccc2)n2nc(C)c(C)c2n1 (stereo not drawn), which Potency is on record?
A: inactive

Q: Which Potency does the source give for CCN1CCN(C(=O)c2nc3sccn3c2-c2ccc(OC)cc2)CC1 here?
A: inactive

Q: For CC(C)c1noc(-c2cccn3c(CNC(=O)c4ccc(Cl)cc4)nnc23)n1, which Potency is on record?
A: inactive

Q: For O=C(c1cc2ccccc2[nH]1)N1CCCC2(C1)NC(=O)N(Cc1ccccc1)C2=O (stereo not drawn), which Potency is on record?
A: inactive

Q: For O=C(O)C[C@@H]1CCN(C(=O)c2ccccc2)C[C@@H]1CCN1C[C@@H]2C[C@H](C1)c1cccc(=O)n1C2, which Potency is on record?
A: inconclusive: 7.08 µM [inhibitor, single point]

Q: For COc1ccc(C2Cn3nnc(C(=O)N4CCN(C(=O)c5cccc(F)c5)CC4)c3CO2)cc1 (stereo not drawn), which Potency is on record?
A: inactive

Q: For COc1ccc(CN2CCn3c(nn(-c4ccc([N+](=O)[O-])cc4)c3=O)C2)cc1, which Potency is on record?
A: inactive

Q: With CS[C@H]1SC[C@@H]2C(=O)N(C)[C@H](C(C)C)C(=O)OC[C@H](NC(=O)c3cnc4ccccc4n3)C(=O)N[C@H](C)C(=O)N(C)[C@@H]1C(=O)N(C)[C@H](C(C)C)C(=O)OC[C@H](NC(=O)c1cnc3ccccc3n1)C(=O)N[C@H](C)C(=O)N2C as the compound, how does the Potency read?
A: active: 0.0061 µM

Q: Which Potency does the source give for COc1ccc(OC)c(CNC(=O)CCc2c(C)nc3c(c2C)c(=O)n(C)c(=O)n3C)c1 here?
A: inconclusive: 3.55 µM [inhibitor, partial curve, poor fit]

Q: Which Potency does the source give for CCCOCc1cc(CN2CCN(c3cccc(Cl)c3)CC2)c(O)c2ncccc12 here?
A: inconclusive: 31.6 µM [inhibitor, single point]

Q: For OC[C@@H]1CNC[C@H]1C1CCN(Cc2ccc(OC(F)(F)F)cc2)CC1, which Potency is on record?
A: inconclusive: 39.8 µM [inhibitor, single point]

Q: For CCc1ccc(N2CC(c3noc(-c4cc(Cl)ccc4F)n3)CC2=O)cc1 (stereo not drawn), which Potency is on record?
A: inconclusive: 20 µM [inhibitor, partial curve, poor fit]

Q: Which Potency does the source give for Cc1cccc(CCNC(=O)c2ccc3c(c2)nc2n3CCOC2)c1 here?
A: inconclusive: 39.8 µM [inhibitor, single point]

Q: For COc1ccc(CNC(=O)C2Cn3cccc3C(=O)N2Cc2ccccc2)cc1OC (stereo not drawn), which Potency is on record?
A: inconclusive: 1.41 µM [inhibitor, full curve, poor fit]

Q: With Cc1ccc(C(=O)N2CCc3[nH]nc(C(=O)NCCCc4ccccc4)c3C2)cc1C as the compound, how does the Potency read?
A: inconclusive: 28.2 µM [inhibitor, single point]

Q: Which Potency does the source give for CCC1CCCCN1S(=O)(=O)c1ccc(NC(=O)c2nc(SC)ncc2Cl)cc1 (stereo not drawn) here?
A: inconclusive: 39.8 µM [inhibitor, single point]

Q: For COC(=O)c1c(NC(=O)C(C)Oc2ccc(Cl)cc2Cl)sc2c1CCCC2 (stereo not drawn), which Potency is on record?
A: inconclusive: 39.8 µM [inhibitor, single point]

Q: With O=C1NCC(=O)N2CCN(C(=O)c3cnnn3-c3ccccc3)CC12 (stereo not drawn) as the compound, how does the Potency read?
A: inactive

Q: Which Potency does the source give for O=C(c1ccccc1-n1cccn1)N1CCc2c(nc[nH]c2=O)C1 here?
A: inconclusive: 7.08 µM [inhibitor, single point]

Q: For Cc1noc([C@@H]2CN(C(=O)COc3ccc(F)cc3)C[C@H]2CO)n1, which Potency is on record?
A: inconclusive: 14.1 µM [inhibitor, single point]

Q: Which Potency does the source give for N#Cc1cccc(CN2CCCC(c3nc4ccc(F)cc4c(=O)[nH]3)C2)c1 (stereo not drawn) here?
A: inconclusive: 0.891 µM [inhibitor, full curve, poor fit]

Q: With O=C(c1ccccc1)N1Cc2ccccc2CC2(CCCN2CC2CCNC2)C1 (stereo not drawn) as the compound, how does the Potency read?
A: inconclusive: 8.91 µM [inhibitor, single point]

Q: Which Potency does the source give for Cc1ccc(NC(=O)c2cc3n(n2)CC(c2ccc4c(c2)OCO4)OC3)c(Cl)c1 (stereo not drawn) here?
A: inactive

Q: For COc1cccc(Cl)c1-c1nccc2c(=O)cc(N(C)C)oc12, which Potency is on record?
A: inconclusive: 2.82 µM [inhibitor, full curve]

Q: Which Potency does the source give for CN(C)Cc1ccc(-c2cc3c(ccn3Cc3ccncc3)c(N3CCOCC3)n2)cc1 here?
A: inactive

Q: Which Potency does the source give for O=C(c1ccc[n+]([O-])c1)N1CCOC(CC(c2ccccc2)c2ccccc2)C1 (stereo not drawn) here?
A: inactive

Q: With Cc1ccc(C)c(N2CCN(CCCNC(=O)c3cnn(-c4ccccc4Cl)c3C3CCN(C(=O)OC(C)(C)C)CC3)CC2)c1 as the compound, how does the Potency read?
A: inconclusive: 35.5 µM [inhibitor, single point]

Q: Which Potency does the source give for O=C(c1cccc(Cl)c1)N1CCC(C(=O)N2CCC(c3nc4ccncc4[nH]3)CC2)CC1 here?
A: inactive

Q: With Cc1cc(Cl)ccc1NC(=O)C(=O)NCc1ccco1 as the compound, how does the Potency read?
A: inconclusive: 25.1 µM [inhibitor, single point]

Q: Which Potency does the source give for COc1ccc(NC(=O)O[C@@H]2C=C[C@H](c3c(C)nn(-c4ccc(C)c(Cl)c4)c3C)C2)cc1 here?
A: inactive

Q: With CSc1ccc(-c2ccc3c(c2)C(=O)N2CCN(C(=O)CCC(=O)O)C[C@H]2C(=O)N3)cc1 as the compound, how does the Potency read?
A: inactive

Q: Which Potency does the source give for COc1ccc(CCCc2nnc(SCC(=O)Nc3ccc(C)cc3)o2)cc1 here?
A: inconclusive: 0.178 µM [inhibitor, full curve, poor fit]

Q: Which Potency does the source give for COc1ccc2c(c1)c1c(c(=O)n(Cc3ccccc3)c(=O)n1CC(=O)NCc1ccccc1Cl)n2C here?
A: inconclusive: 2.82 µM [inhibitor, single point]

Q: Which Potency does the source give for COc1ncc2ncc(=O)n(Cc3ccc(F)cc3)c2n1 here?
A: inconclusive: 4.47 µM [inhibitor, full curve]

Q: With Cc1noc(-c2cn(C3CCN(C(=O)c4ccc(F)cc4)CC3)nn2)n1 as the compound, how does the Potency read?
A: inconclusive: 15.8 µM [inhibitor, partial curve, poor fit]

Q: Which Potency does the source give for CN1CCCC2(C1)CN(Cc1cccnc1)c1ccc(C(=O)Nc3ccccc3)cc12 (stereo not drawn) here?
A: inactive

Q: Which Potency does the source give for Cc1ccc(C(C)C)c(OCC(=O)NCC2(N(C)C)CCCCC2)c1 here?
A: inconclusive: 0.398 µM [inhibitor, single point]

Q: For COc1ccc(CN2CCNc3cnc(Nc4ccccc4)cc3C2)cc1, which Potency is on record?
A: inactive

Q: Which Potency does the source give for Cc1ccccc1N1CC(c2nc3ccccc3n2CCC2CCCCC2)CC1=O (stereo not drawn) here?
A: inconclusive: 2.82 µM [inhibitor, single point]

Q: With CN1CCN(c2cc(=O)c3ccnc(-c4ccc(CO)cc4)c3o2)CC1 as the compound, how does the Potency read?
A: inactive

Q: Which Potency does the source give for Cn1cccc1C(=O)N1CCC2(CC1)CCN(c1cccc(-c3ccccc3)c1)CC2 here?
A: inconclusive: 15.8 µM [inhibitor, single point]

Q: For Cc1noc(-c2cccc(OC3CN(C(=O)CCCc4ccccc4)C3)c2)n1, which Potency is on record?
A: inconclusive: 3.16 µM [inhibitor, full curve, poor fit]

Q: Which Potency does the source give for CC(=O)c1ccc(NC(=O)Cn2cc(S(=O)(=O)Cc3cccc(Cl)c3)c3ccccc32)cc1 here?
A: inconclusive: 39.8 µM [inhibitor, single point]

Q: For CCOc1cc(CNC(=O)c2sc3ncnc(N(C)C4CCCCC4)c3c2C)ccc1OC, which Potency is on record?
A: inconclusive: 39.8 µM [inhibitor, single point]

Q: With Cc1ncsc1CN1C(=O)CO[C@H](c2ccc(NC(=O)c3cccc(C#N)c3)cc2)[C@H]1CO as the compound, how does the Potency read?
A: inconclusive: 39.8 µM [inhibitor, single point]
